# Laboratory results: PubChem BioAssay AID1768 (National Center for Advancing Translational Sciences (NCATS), 2009)
# Screen size: about 270,000 compounds; about 620 (0.23%) were called active. Inconclusive means that the source gave no clear call. Such entries were picked first, then a sample of the others. Calls follow the shape of the dose curve; as a rule, active = well fitted inhibition curve with a large enough effect in the polarisation, with a control signal flat (not every such curve was filed as active); inconclusive = small, poorly fitted or top-dose-only effect, or effect the other way, or a change in a side signal; inactive = no such curve, though single readings can be large or run the other way; the % refers to the polarisation. Where the call is inconclusive, the potency comes from a doubtful curve fit. “Side channel” marks fits to a control or component signal instead of the main read-out.
# Biological target: Menin (Homo sapiens) (UniProt O00255)
# Test: qHTS Assay for Inhibitors Targeting the Menin-MLL Interaction in MLL Related Leukemias: Competition With Texas Red Labeled MLL-derived Mutant Peptide; as to FP activity change, negative = inhibition: % of control where 0% means no effect
# Conditions: fluorescence polarization; FP activity change, negative = inhibition: at 61.6 µM (top of the series)
# Potency is read from the fitted curve at half-maximal effect; tags tell the direction and shape of the fitted curve or compound fluorescence and quenching.
# Sequence of UniProt O00255 (O00255 whole entry, looked up): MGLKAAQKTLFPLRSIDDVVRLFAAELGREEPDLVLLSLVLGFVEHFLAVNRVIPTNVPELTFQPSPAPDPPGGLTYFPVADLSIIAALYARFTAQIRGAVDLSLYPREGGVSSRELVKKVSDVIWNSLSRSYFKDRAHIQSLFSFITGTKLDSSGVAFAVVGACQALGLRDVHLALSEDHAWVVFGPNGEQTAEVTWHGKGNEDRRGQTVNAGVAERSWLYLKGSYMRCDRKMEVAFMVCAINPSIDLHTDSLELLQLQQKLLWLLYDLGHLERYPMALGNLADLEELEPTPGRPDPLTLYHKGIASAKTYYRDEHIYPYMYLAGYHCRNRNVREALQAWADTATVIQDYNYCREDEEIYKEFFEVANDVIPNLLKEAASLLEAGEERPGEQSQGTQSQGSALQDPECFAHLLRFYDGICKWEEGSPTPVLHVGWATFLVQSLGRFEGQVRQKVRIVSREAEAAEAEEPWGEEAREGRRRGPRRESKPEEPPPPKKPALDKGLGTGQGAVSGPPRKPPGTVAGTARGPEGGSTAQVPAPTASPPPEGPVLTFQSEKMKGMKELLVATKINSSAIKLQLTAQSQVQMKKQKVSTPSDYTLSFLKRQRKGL
SMILES,Potency,"FP activity change, negative = inhibition"
Cc1ccc(S(=O)(=O)N(CC(=O)N2CCC(C)CC2)Cc2ccccc2F)cc1,"inconclusive: 20 µM [inhibitor, single point]",
COc1ccc(NC(=O)CN2CCN(CC(=O)Nc3ccccc3Cl)CC2)cc1,"inconclusive: 39.8 µM [inhibitor, single point]",
Cc1ccc(Cn2c(O)c(N=NC(=S)Nc3ccccc3F)c3cc(S(=O)(=O)N4CCOCC4)ccc32)cc1,"inconclusive: 11.2 µM [quencher, side channel, partial curve]",
CCCCN(C)S(=O)(=O)c1ccc(C(=O)Nc2nnc(C3=COCCO3)o2)cc1,"inconclusive: 25.1 µM [quencher, side channel, single point]",
O=C(Nc1ccc(S(=O)(=O)C(F)F)cc1)c1cccc(S(=O)(=O)N2CCOCC2)c1,"inconclusive: 25.1 µM [quencher, side channel, single point]",
COC(=O)[C@H](COC(C)(C)C)NC(=O)O[C@@H]1C(=O)c2cc(Br)ccc2O[C@H]1c1ccc2c(c1)OCO2,inactive,
Cc1ccc(S(=O)(=O)Oc2ccccc2/C=C2\SC(=O)NC2=O)cc1,"inconclusive: 12.6 µM [quencher, side channel, partial curve]",
COC(=O)c1c(NC(=O)c2ccc([N+](=O)[O-])o2)sc2c1CCN(C(C)C)C2,"inconclusive: 22.4 µM [inhibitor, partial curve]",
NC(=O)CSc1nnc(COc2ccccc2)n1C1CCCCC1,"inconclusive: 44.7 µM [inhibitor, single point]",
Cc1ccc2nc(SCC(=O)Nc3cccc([N+](=O)[O-])c3)[nH]c2c1,"inconclusive: 22.4 µM [quencher, side channel, partial curve]",
O=C(CCC(=O)Nc1cccc(Cl)c1)N/N=C/c1cc([N+](=O)[O-])ccc1O,"inconclusive: 14.1 µM [quencher, side channel, partial curve]",
Cc1ccc(-n2c(SCC(=O)Nc3ccc(Cl)cc3)nc(O)cc2=O)cc1,"inconclusive: 28.2 µM [quencher, side channel, single point]",
C/C(=N\NC(=O)c1cccc(Cl)c1)C1C(=O)c2ccccc2C1=O,inactive,
CCOc1ccc(N2C(=O)c3cccnc3C2Nc2ccc(Cl)cc2)cc1 (stereo not given),"inconclusive: 25.1 µM [quencher, side channel, single point]",
Cc1cc(C(=O)NCC(=O)OC(C(=O)Nc2cc(C(F)(F)F)ccc2Cl)c2ccccc2)ccc1[N+](=O)[O-] (stereo not given),"inconclusive: 17.8 µM [quencher, side channel, partial curve]",
O=S(=O)(c1ccc(F)cc1)n1ccc(-c2cccc(OCc3c(F)cccc3Cl)c2)n1,inactive,
COc1ccccc1N1CCN(C(=O)c2cc(=O)c3ccc(C)cc3o2)CC1,"inconclusive: 8.91 µM [inhibitor, partial curve]",
Cc1cc(=O)[nH]c(SCC(=O)Nc2nonc2C)n1,inactive,

SMILES,Potency,"FP activity change, negative = inhibition"
O=C1[C@H]2[C@H]3[C@H](O)[C@H](O)C/C(=N/OC[C@@H](O)COCc4ccco4)[C@H]3CC[C@@H]2C(=O)N1c1cccc(Oc2ccccc2)c1,,inactive: -2.3% [at 11.7 µM]
COC(=O)c1[nH]c2ccc(C)cc2c1NS(=O)(=O)c1ccc(F)c(C)c1,"inconclusive: 22.4 µM [quencher, side channel, partial curve]",
CCC(C)NCCOCCOc1ccc(Cl)c2ccccc12 (stereo not given),"inconclusive: 25.1 µM [inhibitor, partial curve]",
O=[N+]([O-])c1ccc(N/N=C/c2sc(N3CCOCC3)nc2-c2ccccc2)c(S(=O)(=O)Nc2ccccc2Cl)c1,"inconclusive: 1.41 µM [quencher, side channel, full curve, poor fit]",
CC(C)CCn1c(=O)c2ccccc2n2c(CN(C)Cc3ccccc3)nnc12,"inconclusive: 44.7 µM [inhibitor, partial curve, poor fit]",
CCc1ccc2oc(C(=O)N3CCN(c4ccc(OC)cc4)CC3)cc(=O)c2c1,"inconclusive: 0.708 µM [inhibitor, full curve]",
CCCCCCC(=O)Nc1nc(C)c(-c2csc(Nc3cc(Cl)ccc3OC)n2)s1,"inconclusive: 6.31 µM [quencher, side channel, partial curve]",
COc1ccc(C2c3cc(OC)c(OC)cc3Cc3c4cc(OC)c(OC)cc4cc[n+]32)cc1OC (stereo not given),inactive,
COC(=O)NC(c1cccc(C)c1)[C@]1(C(C)=O)CCOC1=O (stereo not given in full),,inactive: 1.32% [at 11.7 µM]
Cc1ccc(-c2cc(-c3ccccc3)nc(Cl)n2)cc1,"inconclusive: 14.1 µM [quencher, side channel, partial curve]",
Cc1cc(C(=O)OCC(=O)Nc2nc(-c3ccccc3)cs2)c(C)o1,"inconclusive: 2.51 µM [inhibitor, partial curve, poor fit]",
Cc1ccc2cc(CCNC(=O)c3c(-c4ccccc4Cl)noc3C)c(=O)[nH]c2c1,"inconclusive: 15.8 µM [inhibitor, partial curve]",
CC(NC(=O)c1ccc(C(C)(C)C)cc1)C(c1cccs1)N1CCOCC1 (stereo not given),"inconclusive: 17.8 µM [fluorescent, side channel, partial curve]",
CCSc1nc2sc3c(c2c(=O)n1-c1ccccc1)CCN(C(C)C)C3,"inconclusive: 22.4 µM [fluorescent, side channel, single point]",
Cc1cc(C(=O)N/N=C/c2cc(Cl)cc([N+](=O)[O-])c2O)c2ccccc2n1,"inconclusive: 22.4 µM [quencher, side channel, partial curve]",
CCC(C)(C)n1nnnc1C(c1ccc(C)cc1)N1CCC(C)CC1 (stereo not given),"inconclusive: 4.47 µM [fluorescent, side channel, full curve, poor fit]",
Cc1ccc(-c2nnc(SCc3ccc(C#N)cc3)n2Cc2ccco2)cc1,"inconclusive: 25.1 µM [inhibitor, single point]",
